This is one part of the list.

The assay relates to T1, C. trachomatis L2/434/Bu expressing GFP (CTL2-GFP).
T1 construct: L2/434/Bu GFP intracellular growth in HeLa cells
More on the design: species or system HeLa; C. trachomatis total inclusion area by high-content imaging, normalised to DMSO. Particulars: total inclusion area; 28.5 h, 10 µM; inhibitor. In outline:
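Bulk GFP and resorufin signals were read first. Wells were then fixed, stained with Hoechst and imaged to detect GFP inclusions and host nuclei. MICs followed the previously described calculation.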
With `CCOc1ccc(C(=O)C2=C(O)C(=O)N(CCN(C)C)C2c2cccnc2)cc1Cl` (stereo not shown) [CBK266585], the “% of control remaining” value came out at 110.984.

For `O=C(O)CSc1nnc(C2COc3ccccc3O2)n1-c1ccccc1` (stereo not shown) [CBK263832], the “% of control remaining” value came out at 82.245.

On to `c1ccc2[nH]c(CCCCCc3nc4ccccc4[nH]3)nc2c1` [CBK267694], for which the “% of control remaining” value amounted to 89.8735.

Consider `CCOC(=O)C1(C2CCCCC2)CCN(C(=O)C(c2ccccc2)c2ccccc2)CC1` [CBK136943], for which the “% of control remaining” value amounted to 61.8504.

As for `O=C(O)c1[nH]c2ccccc2c1NS(=O)(=O)c1cc(F)c(Br)cc1F` [CBK049885], the “% of control remaining” value was found to be 91.6045.

As for `CN1CCC[C@H]1C(=O)N1CCCC2(CCN(Cc3ccccc3)C2)C1` (stereo partly shown) [CBK136901], the “% of control remaining” value is recorded as 83.7838.

On to `COCCn1c(SCc2ccc([N+](=O)[O-])cc2)nc2c([nH]c3ccccc32)c1=O` [CBK294415], for which the “% of control remaining” value is 105.423.

As to `COc1cc(CN2Cc3cccc(C(=O)O)c3C2=O)cc(OC)c1OC` [CBK291227], the “% of control remaining” value was found to be 113.498.

As to `N#Cc1c(NC(=O)c2ccc(C(=O)O)cc2C(=O)O)sc2c1CCCC2` [CBK262722], the “% of control remaining” value is recorded as 108.944.

On to `COc1ccc(NC(=O)N[C@H]2[C@H](O)[C@@H](N3CCOCC3)[C@@H]3OC[C@H]2O3)cc1` [CBK288820], for which the “% of control remaining” value stood at 127.776.

As to `Cc1cccnc1NC(=O)C1CCCN1S(=O)(=O)c1ccc(Cl)cc1` (stereo not shown) [CBK269914], the “% of control remaining” value stood at 119.599.

On to `COc1cc(Nc2cccc(-c3ccc4ccccc4c3)n2)cc(OC)c1OC` [CBK037612], for which the “% of control remaining” value came to 80.531.

With `COc1ccc(CNC(=O)CN2CCCC(Cn3cncn3)C2)cc1` (stereo not shown) [CBK305339], the “% of control remaining” value came to 89.1319.

Regarding `CC(=O)N1CCC(C(=O)NC(=O)NCc2ccc3c(c2)CCO3)CC1` [CBK034837], the “% of control remaining” value was determined as 77.9414.

As for `CCOc1cccc(CNc2ccc(N3CCOCC3)c(C(=O)O)c2)c1` [CBK269973], the “% of control remaining” value came out at 96.4169.

Turning to `Cc1n[nH]cc1-c1nsc(Nc2ccccc2)n1` [CBK113680], the “% of control remaining” value is 83.538.

Consider `CC(=O)N1CCCC(c2cc3cccnc3n2CC(=O)N(C)C)C1` (stereo not shown) [CBK285177], for which the “% of control remaining” value stood at 101.316.

Turning to `COc1cc([C@@]23CC[C@@H](NC(=O)Nc4cccc(C(F)(F)F)c4F)C[C@@H]2N(C)CC3)ccc1C#N` [CBK078562], the “% of control remaining” value is recorded as 78.3084.

With `CN1CCC(N2CCN(C(=O)c3cnc(-c4ccccn4)nc3C(F)(F)F)CC2)CC1` [CBK149089], the “% of control remaining” value is 90.2492.

Turning to `CCOc1ccc(Nc2ncnc3c2cnn3Cc2ccccc2)cc1` [CBK072752], the “% of control remaining” value turned out to be 91.0818.

On to `O=C(CSc1ccc(Cl)cc1)N1CCN(c2ccc([N+](=O)[O-])c(N3CCOCC3)c2)CC1` [CBK269670], for which the “% of control remaining” value was determined as 102.231.

On to `Cc1ccc(/C=C2\SC(=S)N(CCCC(=O)N3CCC(Cc4ccccc4)CC3)C2=O)cc1` [CBK264356], for which the “% of control remaining” value is on record as 107.069.

Take `O=C(Cc1cccc2ccccc12)Nc1cc(C(=O)O)cc(C(=O)O)c1` [CBK268475]: the “% of control remaining” value worked out at 123.424.

Consider `CC1CCc2c(C(=O)N3CC(C)OC(C)C3)csc2C1` (stereo not shown) [CBK304442], for which the “% of control remaining” value is given as 65.2702.

`COc1ccccc1NC(=O)Cn1nc(-c2ccc(C)cc2)ccc1=O` [CBK269974]: the “% of control remaining” value was determined as 87.2478.

Take `CO[C@@H]1CO[C@H]2[C@@H]1OC[C@@H]2NC(=O)Nc1cccc(C(F)(F)F)c1` [CBK289461]: the “% of control remaining” value was 96.2657.

`Cc1ccc(C(=O)C2(O)CCN(CCCC(c3ccc(F)cc3)c3ccc(F)cc3)CC2)cc1` [CBK025221C]: the “% of control remaining” value is given as 1.301.

For the compound `O=C(CC(CN1CCCN(c2ncccn2)CC1)C(=O)O)NCc1ccccc1` (stereo not shown) [CBK286856], the “% of control remaining” value is listed as 90.0437.

Regarding `COc1ccccc1C1(NCc2cnn(C)c2)CCCC1` [CBK282744], the “% of control remaining” value was 85.2162.

Take `CC(=O)N1CCC[C@H]1Cn1nc(-c2cccs2)ccc1=O` [CBK284249]: the “% of control remaining” value is reported as 75.196.

As for `CC1CCN(S(=O)(=O)c2ccc(NC(=O)COc3ccc([N+](=O)[O-])cc3)cc2)CC1` [CBK264994], the “% of control remaining” value was 96.4119.

Regarding `C/C(=N\NC(=O)c1nonc1N)c1ccc(Cl)cc1` [CBK025664], the “% of control remaining” value worked out at 109.903.

`COc1ccc(-c2ccccc2)cc1NCc1cc2cc(OC)c(OC)cc2[nH]c1=O` [CBK286160]: the “% of control remaining” value is listed as 90.2172.

Regarding `CCOc1ccc(-c2nc(CC(=O)O)cs2)cc1` [CBK295300], the “% of control remaining” value came to 126.84.

As to `O=C1N=C(NCC2CCCCC2)SC1CC(=O)N1CCCC(O)C1` (stereo not shown) [CBK067919], the “% of control remaining” value is listed as 83.3311.

`COc1cnc(-c2cc(Cl)cc(Cl)c2)c(NC(C)=O)n1` [CBK145333]: the “% of control remaining” value is recorded as 145.415.

`CCn1ncc(CN2C3CCC2CC(O)(c2ccccc2F)C3)c1C` (stereo not shown) [CBK282663]: the “% of control remaining” value is 118.771.

With `O=C(O)c1sccc1Oc1ccc(F)cc1[N+](=O)[O-]` [CBK066847], the “% of control remaining” value is recorded as 95.6723.

As for `O=C(OCc1ccccc1)N1CCC(C2OCc3cc(-c4cccc5ncccc45)ccc3O2)CC1` (stereo not shown) [CBK144644], the “% of control remaining” value was found to be 55.9994.

In the case of `CCOC(=O)NC(=O)N1CCC(N2C(=O)OCC2(C)C)CC1` [CBK044179], the “% of control remaining” value is 44.2764.

For `C/C(=N/NC(=O)CSc1nc2ccccc2n1C)c1cccc([N+](=O)[O-])c1` [CBK263179], the “% of control remaining” value is given as 68.7083.

For `O=C(CSc1nnc(-c2ccccc2O)n1-c1ccccc1)N1CCc2ccccc21` [CBK268097], the “% of control remaining” value is reported as 87.0181.

For the compound `c1cn2cc(-c3ccc(N4CCOCC4)cc3)nc(NCC3CCOCC3)c2n1` [CBK037308], the “% of control remaining” value is reported as 170.918.

Consider `COc1ccccc1NC(=O)C(=O)NCCc1c[nH]c2ccccc12` [CBK266672], for which the “% of control remaining” value was 78.7657.

For the compound `O=C(/C=C/c1c(Cl)cccc1Cl)Nc1ccc(S(=O)(=O)Nc2ncccn2)cc1` [CBK265490], the “% of control remaining” value amounted to 78.2657.

For the compound `O=C(c1cccc(-c2cncc(-c3ccc(O)cc3)n2)c1)N1CCOCC1` [CBK123796], the “% of control remaining” value was determined as 120.483.

With `O=C1c2ccccc2C(=O)N1CSc1nnc(SCN2C(=O)c3ccccc3C2=O)s1` [CBK263694], the “% of control remaining” value was found to be 93.5029.

As for `Cc1cccc(-c2nc3ccc(NC(=O)CCC(=O)O)cc3o2)c1` [CBK269773], the “% of control remaining” value is recorded as 110.612.

`OC1(c2ccccc2)CCN(Cc2ccccc2-n2cccn2)C1` (stereo not shown) [CBK282795]: the “% of control remaining” value is 75.4657.

These data come from publication PMC12040169 (PLOS Biology, 2025).
